SMILES strings stand for the structures. In all, about 150,000 compounds went through this assay and about 540 (0.36%) showed an effect of 50% or more. This is one part of the list.

For orientation: % Inhibition means the drop in the measured response relative to a control, in per cent.

The experiment relates to Plasmodium falciparum. In words: Primary screen in NF54 nanoGlo assay, in single point, at 2uM, 72h; a lower Z score goes with more inhibition. The format is functional, Erythrocyte. Particulars: timepoint 72 hour.
Regarding `Fc1ccc(-c2nc(-c3c[nH]c4ccc(Br)cc34)[nH]c2-c2ccccc2)cc1`, the “% Inhibition” value was -16% and the Z score came to 1.76.
Take `Cn1nnc2c(=O)n(CC(=O)Nc3ccc(F)c(Cl)c3)cnc21`: the “% Inhibition” value is given as -4% and the Z score was determined as 0.6.
For `Cc1cncc(NC(=O)C(=O)N(CC(C)C)CC(C)(C)C)c1`, the “% Inhibition” value was -1% and the Z score amounted to 0.25.
Take `Cc1cc(CN2CCCN(C(=O)Nc3cccc4c3CCCC4)CC2)no1`: the “% Inhibition” value is reported as 0% and the Z score is on record as -0.02.
As to `O=C1CCCC(=O)C12Cc1ccc(Cl)cc1N1CCCCC[C@H]12`, the “% Inhibition” value is on record as 7% and the Z score is on record as -1.31.
Regarding `CC(=O)NC1CCN(Cc2cnc(C3CCCC3)s2)CC1`, the “% Inhibition” value was -11% and the Z score came out at 1.13.
The matching figures for `Cc1ccccc1C(=O)Nn1ccc2c(cnc3c(-c4ccc(F)cc4)cnn32)c1=O`: 6% and -0.79.
The matching figures for `O=C(NC1CCC(c2ccc(F)cc2)C1)C1=COCCO1` (configuration not stated): -13% and 1.8.
Turning to `CCOc1cccc(CN(CCO)Cc2ccc(CN(C)S(C)(=O)=O)o2)c1`, the “% Inhibition” value is listed as -10% and the Z score is 1.92.
For the compound `Cc1ccc(S(=O)(=O)N2C[C@@H]3CC[C@H]2CN(C(=O)N(C)C)C3)s1`, the “% Inhibition” value was -5% and the Z score came out at 0.75.
For the compound `Cc1nnc(CNC2CC(OC(C)C)C2(C)C)s1` (configuration not stated), the “% Inhibition” value is -2% and the Z score amounted to 0.24.
Turning to `CCn1nccc1CN(C)C(=O)c1cc(C)c(C)s1`, the “% Inhibition” value came out at 35% and the Z score was -0.61.
Turning to `CC[C@@H](C(=O)NCc1ccc2c(c1)CCN2C(=O)c1ccccc1)N1C(=O)COc2ccccc21`, the “% Inhibition” value is listed as -4% and the Z score is given as 0.67.
Consider `NC(=O)NC1CCN(C(=O)[C@]2(c3ccccc3)CCCO2)CC1`, for which the “% Inhibition” value came out at 0% and the Z score was 0.02.
For `CC[C@@H]1CCO[C@@H]1C(=O)NS(=O)(=O)c1cc(Cl)cc(Br)c1`, the “% Inhibition” value was -3% and the Z score is 0.45.
The matching figures for `CN1C(=O)NC2(CCN(CC(=O)Nc3ccc4c(c3)OCO4)CC2)C1=O`: -2% and 0.42.
As for `O=C1CCCc2nc(N3CCOCC3)ncc21`, the “% Inhibition” value is given as 3% and the Z score is recorded as -0.38.
For `CC(C)[C@H]1CN(S(=O)(=O)N(C)Cc2ccccc2)C[C@@H]1N(C)C`, the “% Inhibition” value was -8% and the Z score turned out to be 1.1.
For the compound `C[C@]1(O)CCN(Cc2ccccc2-c2ccco2)C[C@@H]1O`, the “% Inhibition” value is -21% and the Z score was found to be 1.97.
Regarding `COC[C@@]12CN(C(C)=O)CC[C@@H]1CN(C(=O)c1ccc(C)s1)C2`, the “% Inhibition” value is -17% and the Z score was 1.96.
In the case of `CC(C)CN1C(=O)N(Cc2ccccc2)C2(CCNCC2)C1=O`, the “% Inhibition” value is 5% and the Z score is reported as -0.69.
Regarding `CCCNC(=O)c1cc(-c2ccc(Cl)cc2)cn1C`, the “% Inhibition” value was found to be 14% and the Z score is reported as -2.24.
In the case of `CC1CN(C(C(=O)N2CCC(C(C)NC(=O)OC(C)(C)C)C2)C(C)C)CC(C)O1` (configuration not stated), the “% Inhibition” value came to 12% and the Z score is given as -1.41.
For the compound `COC[C@H](NC(=O)Nc1cnn(-c2ccccn2)c1)c1ccco1`, the “% Inhibition” value came out at 4% and the Z score is given as -0.45.
Regarding `CCOC(=O)N1CCC(NCc2cc(Br)c3c(c2)OCO3)CC1`, the “% Inhibition” value is -18% and the Z score was determined as 2.27.
On to `NC(=O)c1nc(CNC(=O)C[C@@H](c2ccccc2)c2ccccc2F)no1`, for which the “% Inhibition” value is on record as -9% and the Z score was determined as 1.56.
For the compound `NC(=O)CN1C(=O)[C@]2(CC(=O)Nc3c2cnn3-c2ccccc2)c2ccccc21`, the “% Inhibition” value is -2% and the Z score came to 0.22.
On to `CCCc1nc(CN2CCOc3ccccc3[C@@H]2C(=O)O)no1`, for which the “% Inhibition” value is 6% and the Z score is on record as -1.09.
As for `C#Cc1cccc(NC(=O)N(CCOC)Cc2ccc(C)o2)c1`, the “% Inhibition” value is 5% and the Z score is reported as -0.67.
Turning to `CC1CCCC(OC(C)C(=O)NC(C)C(=O)Cc2ccccc2)C1` (configuration not stated), the “% Inhibition” value is reported as 2% and the Z score is recorded as -0.3.
In the case of `CC(Cn1cncn1)NC(=O)N1CCC[C@H]1C(F)F` (some centres not stated), the “% Inhibition” value worked out at 1% and the Z score is -0.12.
As to `CC(c1nc(C2CC2)no1)N1CCCC1Cn1cncn1` (configuration not stated), the “% Inhibition” value is on record as 1% and the Z score is -0.27.
In the case of `O=S(=O)(NCC1(Cn2ccnc2)CC1)c1cccnc1`, the “% Inhibition” value is 4% and the Z score is -0.75.
As for `COc1cccnc1N1CC[C@H](O)[C@@H](C2CCCC2)C1`, the “% Inhibition” value is given as -5% and the Z score is reported as 0.98.
Take `CS(=O)(=O)NC[C@H](O)c1ccc(-c2ccco2)cc1`: the “% Inhibition” value was found to be 2% and the Z score is -0.28.
As to `C=CCNC(=O)N1Cc2cccc(F)c2C1`, the “% Inhibition” value was -14% and the Z score was 1.37.
`Cc1cc(F)cc(NC(=O)N2C[C@@H]3[C@@H](CN(C)C)[C@@H]3C2)c1`: the “% Inhibition” value amounted to 6% and the Z score is given as -0.84.
On to `Cc1cc(C(=O)N2CCC(C(N)=O)CC2)c(C)n1C1CC1`, for which the “% Inhibition” value is -8% and the Z score is reported as 0.66.
Regarding `Cc1nn(CC(=O)Nc2nn(C)c3ccccc23)c(C)c1-c1ccncc1`, the “% Inhibition” value is given as -15% and the Z score is given as 2.26.
Consider `Cc1oc(-c2ccccc2)nc1CN1C(=O)c2ccccc2C(C)(C)C1=O`, for which the “% Inhibition” value worked out at 7% and the Z score is on record as -1.01.
`Cn1nc(CN(C(=O)NCc2ccc(Cl)cc2)C2CCCC2)c2c1CCC2`: the “% Inhibition” value turned out to be 0% and the Z score came out at 0.03.
Consider `CCOC(=O)C(C)(C)c1csc(Cc2csc(C)n2)n1`, for which the “% Inhibition” value was -15% and the Z score turned out to be 2.03.
`N#Cc1ncn(Cc2nc(-c3cc(F)c(F)c(F)c3)no2)c1C#N`: the “% Inhibition” value is -3% and the Z score is recorded as 0.26.
In the case of `CN1CCC2(CC1)CCN2C(=O)NCc1ccnc(OC(F)F)c1`, the “% Inhibition” value is given as -14% and the Z score was 1.75.
On to `COc1cncc(C(=O)N2CCOC[C@@]23CCOC3)n1`, for which the “% Inhibition” value turned out to be 2% and the Z score is listed as -0.36.
As to `O=C(NC[C@H]1CCCN(C(=O)c2ccoc2)C1)c1cnc2ccccn2c1=O`, the “% Inhibition” value was -13% and the Z score is 2.11.
The matching figures for `CCOCCCC(=O)NCc1nc(CC)c[nH]1`: -7% and 0.9.
For the compound `CN1CCN(C(=O)c2ccc(-c3cccnc3N)cc2)C[C@@H]1CCO`, the “% Inhibition” value is listed as -11% and the Z score amounted to 2.1.
Consider `Cc1cscc1NC(=O)NCc1nc(C(C)(C)C)cs1`, for which the “% Inhibition” value is 0% and the Z score is recorded as -0.01.
For `COc1ccc(C(=O)N2CCn3cccc3[C@H]2c2cccs2)cc1`, the “% Inhibition” value came to 19% and the Z score is -2.43.
The matching figures for `Cn1cc(CN2CCCc3c(Br)cccc3C2)nn1`: -8% and 1.24.
Regarding `CC1(C)COC[C@H](CS(N)(=O)=O)O1`, the “% Inhibition” value is -9% and the Z score is reported as 1.44.
The matching figures for `COc1ccc(-n2nc(C)c3c(NCCNC(=O)CC(C)C)nc(C4CC4)nc32)cc1`: -5% and 0.78.
In the case of `O=C(COc1ccc(Cl)cc1)N[C@@H]1COCC[C@@H]1OCc1ccccn1`, the “% Inhibition” value is -5% and the Z score is recorded as 0.48.
Turning to `O=C(NCc1ccc2cc[nH]c2n1)N[C@H]1COc2ccc(Cl)cc21`, the “% Inhibition” value was determined as 11% and the Z score is -1.1.
The matching figures for `Cn1c(C(=O)N2CCC2)cc2ccc(Cl)cc21`: -10% and 1.65.
The matching figures for `CCn1ccc(C(=O)N2CCC[C@H](CNC(=O)c3ccc(F)cc3C)C2)cc1=O`: -6% and 1.25.
For the compound `CCN(Cc1nc(C)no1)C(=O)NCC1(N2CCOCC2)CCCCCC1`, the “% Inhibition” value is 2% and the Z score was -0.37.
For the compound `O=S(=O)(c1cc(F)ccc1N1CC[C@H](O)C1)C(F)(F)F`, the “% Inhibition” value worked out at 5% and the Z score is reported as -0.52.
Consider `O=C(Cc1cccs1)Nc1nnc(-c2ccccc2)o1`, for which the “% Inhibition” value is -8% and the Z score was 0.98.
Turning to `Cc1nc(CCNC(=O)c2ccc(-c3ccc4c(c3)OCCO4)s2)c(C)o1`, the “% Inhibition” value was 17% and the Z score is on record as -1.89.
For the compound `O=C(O)COc1cccc(C(=O)N[C@@H]2c3ccccc3CC23CCOCC3)c1`, the “% Inhibition” value is on record as -1% and the Z score is reported as 0.29.
Turning to `CCCN(CC(=O)N1CCc2sccc2[C@@H]1COc1ccccc1)C(=O)c1cccc(C)c1`, the “% Inhibition” value was determined as 0% and the Z score is reported as -0.03.
For `CO[C@@H](C)C(=O)NCCc1nc(-c2ccccc2)c(C)s1`, the “% Inhibition” value was found to be 0% and the Z score is given as 0.
On to `Cc1cc(S(=O)(=O)N2CC(Nc3ccncn3)C2)ccc1F`, for which the “% Inhibition” value was -5% and the Z score is on record as 1.06.
Regarding `CCC(C)c1nnc2n1CCC(C(=O)OC)C2` (configuration not stated), the “% Inhibition” value is on record as -10% and the Z score is 2.03.
Turning to `Cc1nc(CCCNC(=O)Nc2cccnc2O)sc1C`, the “% Inhibition” value is on record as -15% and the Z score was 1.86.
With `CCCOCC(=O)N1CCC(n2c(=O)[nH]c3cccnc32)CC1`, the “% Inhibition” value is 3% and the Z score is reported as -0.34.
On to `COc1ccc(Cl)cc1[C@@H](O)CNc1nccs1`, for which the “% Inhibition” value is recorded as -7% and the Z score worked out at 1.28.
For the compound `Cc1ccc(C#N)c(N2CCN(CC(C)C)C(=O)C2)n1`, the “% Inhibition” value amounted to 1% and the Z score was -0.09.
The matching figures for `C[C@@H](c1cnn(C)c1)c1nc(C2(C(F)(F)F)CCC2)no1`: -2% and 0.34.
Turning to `C[C@]1(C(N)=O)CCN(c2nnc(-c3cccc(Cl)c3)n2Cc2ccccc2)C1`, the “% Inhibition” value is listed as -3% and the Z score is listed as 0.53.
With `O=C(c1nc2ccccc2s1)N1CC(n2ccnn2)C1`, the “% Inhibition” value is reported as -20% and the Z score was 2.24.
Consider `CN(CC(=O)NCCc1nc(-c2cccnc2)n[nH]1)Cc1ccccn1`, for which the “% Inhibition” value is -10% and the Z score was 0.97.
The matching figures for `CC(C)C1CC(c2csc(N)n2)CCO1` (configuration not stated): -2% and 0.34.
As to `CCc1ccc(-n2nc(C)c3c(C)cc(OCC(=O)NC4CCCCC4)nc32)cc1`, the “% Inhibition” value is listed as -16% and the Z score stood at 1.8.
`COC1CCC(N(C)S(=O)(=O)c2ccc(C)c(N(C)C)c2)CC1` (configuration not stated): the “% Inhibition” value is recorded as 1% and the Z score is on record as -0.08.
Take `Nc1ccc(-c2nnc(-c3ccc(-c4ccccc4)cc3)o2)cc1`: the “% Inhibition” value was -18% and the Z score is listed as 3.44.
Take `Cc1cccc(N(CCC#N)C(=O)c2cc3ccccc3c(=O)[nH]2)c1`: the “% Inhibition” value is on record as -18% and the Z score is 1.68.
`CCOc1ccc(CN2C(=O)C(C)C(C)C2=O)nc1` (configuration not stated): the “% Inhibition” value is on record as -10% and the Z score is 1.45.
For `COc1cccc(CN2CCC3(CC[C@@H]3O)CC2)n1`, the “% Inhibition” value is -13% and the Z score is given as 1.61.
The matching figures for `Cc1ccccc1CS(=O)(=O)N1CCC(C(=O)N2CCN(c3cccc(C)c3C)CC2)CC1`: -6% and 1.02.
`COCC(=O)N[C@@H]1CN(C(=O)Cc2cc3ccccc3o2)C[C@H]1c1ccnn1C`: the “% Inhibition” value is given as -2% and the Z score is listed as 0.24.
Regarding `CN(Cc1cnccn1)C1CC2CCC1C2` (configuration not stated), the “% Inhibition” value is -8% and the Z score was determined as 0.9.
`O=C(NCc1ccnc(N2CCCC2=O)c1)[C@H]1CCOC1`: the “% Inhibition” value is reported as -13% and the Z score was 2.
As for `N#Cc1cccc([C@@H](C#CC2(O)CCCC2)N2CCC(C(N)=O)CC2)c1`, the “% Inhibition” value is reported as -5% and the Z score is 1.05.
